Test results as given in patent US20080311122A1, “Antagonists of Hmgb1 and/or Rage and Methods of Use Thereof” (Medimmune, LLC, priority 2005, published 2008).

Legend:
[1] = Differential scanning calorimetry; format: physicochemical; set-up: unit: °C; conditions: in °C (unit assumed)
Description: Differential Scanning Calorimetry: Thermal melting temperatures (Tm) were measured with a VP-DSC (MicroCal, LLC) using a scan rate of 1.0° C./min and a temperature range of 25-120° C. A filter period of 8 seconds was used along with a 5 minute pre-scan thermostating. Samples were prepared by dialysis into 25 mM Histidine-HCl, pH 6 using Pierce dialysis cups (3.5 kD). Average Mab concentrations were 50 μg/mL as determined by A280. Melting temperatures were determined following manufacturer procedures using Origin software supplied with the system. Briefly, multiple baselines were run with buffer in both the sample and reference cell to establish thermal equilibrium. After the baseline was subtracted from the sample thermogram, the data were concentration normalized and fitted using the deconvolution function.

[2] = target: T1, recombinant HMG1 binding to RAGE-Fc (Homo sapiens, UniProt P09429); assay: HMG1 binding to RAGE-Ig by ELISA; conditions: at the concentrations tested
T1 construct: made in house; host or cells: E. coli (HMG1)
T1 sequence (P09429 1-215): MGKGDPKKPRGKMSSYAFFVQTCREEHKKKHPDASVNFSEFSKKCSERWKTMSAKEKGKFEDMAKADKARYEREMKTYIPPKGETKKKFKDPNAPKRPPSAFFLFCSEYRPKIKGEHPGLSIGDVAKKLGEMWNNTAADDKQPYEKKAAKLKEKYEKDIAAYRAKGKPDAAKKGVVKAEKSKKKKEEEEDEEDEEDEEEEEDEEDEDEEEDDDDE
Description: HMG1 binding to RAGE-Ig by ELISA: 50 μl/well of RAGE-Fc fusion protein at 5 μg/ml in PBS was added to each well of an ELISA plate and incubated overnight at 4° C. The plate was then blocked with 200 μl of 5% milk at 37° C. for 1 hr and washed 3× with PBS/Tween. 50 μl/well of diluted HMGB1 solution. For dose curves, HMGB1 concentrations started at 4 ug/ml in PBS. For antibody blocking the HMGB1 was preincubated in another plate with human anti-HMG1 antibodies or buffer, then transferred to the RAGE-coated plate. The plates were then incubated at room temperature for 2 hours and washed 3×. To detect any HMG1 bound to the immobilized RAGE-Fc a mixture of biotinylated mouse anti-HMG1 mAbs (10D4, 4H11, 3E10 and 5C12) each at 1 ug/ml, total Ab: 4 ug/ml, were added to each well and the plate was incubated for 1 hour at room temperature. The plate was then washed and Strepavidin-HPR was added to each well and incubated 15 min. The plate was then washed 3× and blotted dry. 100 μl of TMB developing agent was added and the plate read at 650 nm. Values were calculated as percent of inhibition with HMG1 alone equal to 0% inhibition. The data in FIG. 9 and summarized in Table 1 represent the average of two separate experiments.

[3] = tested on: mouse CLP model of sepsis; assay: Cecal ligation and puncture (CLP) model of sepsis; format: in vivo; conditions: percent protection, isotype control subtracted
Description: Anti-HMGB1 in Sepsis: To establish live intra-abdominal infection and sepsis, Balb/C mice (9-11 per group) were subjected to the CLP procedure as described previously (Fink and Heard, 1990, J Surg Res 49:186-196; Wichmann et al., 1996, J Surg Res 65, 109-114). After anesthesia with an intramuscular injection of ketamine (75 mg/kg, Fort Dodge Laboratories, Fort Dodge, Iowa) and xylazine (20 mg/kg, Bochringer Ingelheim), a 15-mm midline incision was made to expose the cecum. After ligation 5.0 mm from the tip, the cecal stump was punctured once with a 22-gauge needle, and small amount of stool (1-mm length) was extruded. The cecum was placed back into its normal intra-abdominal position, and the wound was closed with two layers of running suture. All animals received saline-solution (0.9% s.c., 20 ml/kg of body weight) resuscitation, and a single dose of antibiotic (0.5 mg of imipenem per mouse in 200 μl of sterile saline injected s.c.) (Primaxin, Merck) 30 min after surgery.
Anti-HMG1 antibodies or isotype control antibodies (50 μg/mouse in a 200 μl volume), were administered intraperitoneally at 24 and 48 hours, post surgery. In certain follow up experiments anti-HMG1 antibodies or isotype control antibodies (8 mg/kg) were administered intraperitoneally at 24 hours, post surgery (FIG. 11C-D). […] The survival of the mice was monitored twice daily for a total of 14 days. […]

HMG1 peptides [4] = target: T2, HMG1 peptides (Homo sapiens, UniProt P09429); assay: HMG1 B Box and peptide mapping ELISA; format: binding; conditions: B Box peptide ELISA
T2 sequence (P09429 91-169 P98L): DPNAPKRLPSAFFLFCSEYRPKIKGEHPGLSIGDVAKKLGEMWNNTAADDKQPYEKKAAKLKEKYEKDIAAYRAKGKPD
Description: (§1) HMG1 B Box and Peptide Mapping: Individual wells of a 96-well immunoplate (EIA/RIA plate, High binding, Costar) were coated with HMG1 B Box peptide amino acids 91-169 (FIG. 5A) or amino acids 150-183 (FIG. 5B) at 10 μg/ml in PBS at 4° C. overnight. The plate was then blocked with 4% milk powder dissolved in PBS at 37° C. for 1 hour. The blocking solution was removed and replaced with human anti-HMG1 antibodies at various concentrations (see FIGS. 5A-B). The plate was then washed (ELX-405 Plate washer, BIO-TEK) and secondary antibody (anti-human IgG-HRP, PIERCE) was added at a final concentration of 1:125,000 at 37° C. for 1 hour. HRP activity was detected with Sureblue HRP substrate (KPL). Plates were read at 450 nm using a Kinetic Microplate Reader (Molecular Devices). To obtain more detailed peptide mapping information, similar ELISA assays were performed using 16 biotinylated overlapping peptides spanning the HMGB1 protein from amino acid 1 to 215 as follows, maxisorp microtiter plate was coated with 2 μg/ml of NeutroAvidin (Pierce) overnight at 4° C. After washing and blocking with 1% BSA in PBS, the biotinylated peptides were individually added into the avidin coated wells and incubated for 30 min at room temperature. […] Detection was accomplished by adding 50 μl of tetramethylbenzidine (TMB) substrate (KPL) and the absorbance was read at […]. […]

HMG1 peptides [5] = target: T3, HMG1 peptides (Homo sapiens, UniProt P09429); assay: HMG1 B Box and peptide mapping ELISA; format: binding; conditions: B Box peptide ELISA; remark: listed apart in the source
T3 sequence (P09429 150-183): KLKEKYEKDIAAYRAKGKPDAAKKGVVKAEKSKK
Description: as §1

B1: S2: human anti-HMG1 antibody, ATCC PTA-6142; VL/VH aa SEQ ID NO: 5/7 (antibody, listed as Homo sapiens, V domains shown)
VH: EVQLLESGGGLVQPGGSLRLSCAASGFTFSGYMMVWVRQAPGKGLEWVSRISPSGGQTGYADSVKGRFTISRDNSKNTLYLQMNSLRAEDTAVYYCAREEGGSYGAFDIWGQGTMVTVSS
VL: [gap - about 100 residues]FGQGTKVEIK
- Tm [1]: 79.2
- block of recombinant HMG1 binding to RAGE [2]: significant ability to block the binding of HMG1 to RAGE
- in vivo CLP [3]: 15%
- binding to HMG1 peptide 91-169 (HMG1 peptides [4]): do not bind either of the HMG1 B Box peptides
- binding to HMG1 peptide 150-183 (HMG1 peptides [5]): do not bind either of the HMG1 B Box peptides
